Measured values reported in a collection of fitness landscapes (doi:10.1016/j.celrep.2020.107928).
In all, about 81,000 sequences were measured (“one-hybrid fitness for binding NBS DNA”: median about -0.1, highest 2% from about 0.36 on). The list shows a part of the results.

B1: Caulobacter ParB omega fusion; a variant is named by its letters at X, in order, B8GW30 (parent)
chain: MESVVVGEPGMSEGRRGLGRGLSALLGEVDAAPAQAPGEQLGGSREAPIEILQRNPDQPRRTFREEDLEDLSNSIREKGVLQPILVRPSPDTAGEYQIVAGERAWRAAQRAGLKTVPIMVRELDDLAVLEIGIIENVQRADLNVLEEALSYKVLMEKFERTQENIAQTIGKSXSHVANXMRLLXLPDEVQSYLVSGELTAXHARAIAAAADPVALAKQIIEGGLSVRETEALARKAPNLSAGKSKGGRPPRVKDTDTQALESDLSSVLGLDVSIDHRGSTGTLTITYATLEQLDDLCNRLTRGI

Variants of: B1
Assay: one-hybrid fitness for binding NBS DNA (the Noc-binding site; scaled: cognate 1, non-cognate 0); higher = stronger binding
Conditions: with NBS DNA site
In short: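 In E. coli USO, a HIS3 reporter with its site placed 19 bp from the promoter was used to select Caulobacter ParB variants randomised at four specificity codons. Growth lasted 48 hours at 37°C on histidine-free M9 containing 0.1 mM IPTG and 5 mM 3-AT. Fitness was taken as the log change in variant-to-wild-type read ratio from Illumina sequencing of pre- and post-selection plasmids, rescaled between the non-cognate and cognate sites.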

Point of comparison: QKWR, “one-hybrid fitness for binding NBS DNA” value 0.462. Against it:
- NAIR — lower, ≤ 0.2
- PRFD — lower, ≤ 0.2
- PTCN — lower, ≤ 0.2
- SILV — lower, ≤ 0.2
- AKHS — lower, ≤ 0.2
- QAPC — lower, ≤ 0.2
- QYCK — lower, ≤ 0.2
- CSVY — lower, ≤ 0.2
- VGLG — lower, ≤ 0.2
- ERRI — lower, ≤ 0.2
- PCMI — lower, ≤ 0.2
- ENTV — lower, ≤ 0.2
- PAGG — lower, ≤ 0.2
- DKCT — lower, ≤ 0.2
- SGMC — lower, ≤ 0.2
- HNHL — lower, ≤ 0.2
- HHTR — lower, ≤ 0.2
- TDWG — lower, ≤ 0.2
- GSSE — lower, ≤ 0.2
- PDRT — lower, ≤ 0.2
- DTLK — lower, ≤ 0.2
- PAYY — lower, ≤ 0.2
- KLMC — lower, ≤ 0.2
- TLCL — lower, ≤ 0.2
- RQQW — lower, ≤ 0.2
- PACK — lower, ≤ 0.2
- LVQC — lower, ≤ 0.2
- LMKE — lower, ≤ 0.2
- RAIH — lower, ≤ 0.2
- PVQP — lower, ≤ 0.2
- AMYC — lower, ≤ 0.2
- FVHC — lower, ≤ 0.2
- MIIT — lower, ≤ 0.2
- LAAF — lower, ≤ 0.2
- QDVM — lower, ≤ 0.2
- DAAF — lower, ≤ 0.2
- EDLG — lower, ≤ 0.2
- WGRT — lower, ≤ 0.2
- DAPL — lower, ≤ 0.2
- CVLK — lower, ≤ 0.2
- KTVK — lower, ≤ 0.2
- LADF — lower, ≤ 0.2
- FMRS — lower, ≤ 0.2
- SPMT — lower, ≤ 0.2
- FPLR — lower, ≤ 0.2
- ELYS — lower, ≤ 0.2
- MPPY — lower, ≤ 0.2
- RPNW — lower, ≤ 0.2
- VNDR — lower, ≤ 0.2
- SFMN — lower, ≤ 0.2
- CFHS — lower, ≤ 0.2
- TYMT — lower, ≤ 0.2
- YYFF — lower, ≤ 0.2
- AGNG — lower, ≤ 0.2
- RRKE — lower, 0.214
- HNDG — lower, ≤ 0.2
- RRVT — higher, 0.755
- FGGS — lower, ≤ 0.2
- WAYG — lower, ≤ 0.2
- TGRE — lower, ≤ 0.2
- ALPD — lower, ≤ 0.2
- TNVF — lower, ≤ 0.2
- QPHY — lower, ≤ 0.2
- LCYS — lower, ≤ 0.2
- QMMC — lower, ≤ 0.2
- RRTI — lower, 0.211
- HWSG — lower, ≤ 0.2
- PWQG — lower, ≤ 0.2
- GPVD — lower, ≤ 0.2
- QYDV — lower, ≤ 0.2
- DGYC — lower, ≤ 0.2
- SVLC — lower, ≤ 0.2
- SSLH — lower, ≤ 0.2
- SEIW — lower, ≤ 0.2
- MRWT — lower, ≤ 0.2
- TKGC — lower, ≤ 0.2
- VADQ — lower, ≤ 0.2
- RSMP — lower, ≤ 0.2
- PHPG — lower, ≤ 0.2
- YAAS — lower, ≤ 0.2
- ALVC — lower, ≤ 0.2
- TSWN — lower, ≤ 0.2
- RWTR — lower, ≤ 0.2
- SLVC — lower, ≤ 0.2
- RCRS — higher, 0.661
- GEDM — lower, ≤ 0.2
- VALL — lower, ≤ 0.2
- ELVT — lower, ≤ 0.2
- KGKR — lower, ≤ 0.2
- GARR — lower, ≤ 0.2
- SRNE — lower, ≤ 0.2
- TCSC — lower, ≤ 0.2
- VCEA — lower, ≤ 0.2
- RGMR — lower, ≤ 0.2
- CWSY — lower, ≤ 0.2
- VDEW — lower, ≤ 0.2
